Measured values published in ChEMBL document CHEMBL4888484, “Replenishing the malaria drug discovery pipeline: Screening and hit evaluation of the MMV Hit Generation Library 1 (HGL1) against asexual blood stage Plasmodium falciparum ,using a nano luciferase reporter read-out” (2022).
The whole screen tested about 4,800 compounds, of which about 410 (8.5%) showed an effect of 50% or more. The list shows a part of the results. Where a SMILES comes first, the peptide text is derived from it. The star is where a group is joined. NHPhenethyl = c1ccc(CCN*)cc1

system: Plasmodium falciparum; assay: Confirmatory screen in NF54 pLDH assay, in single point, at 2uM, 72h; assay type: functional, Erythrocyte; conditions: timepoint 72 hour

Row | Structure (SMILES) | % Inhibition [%]
1 | CC(C)(C)c1cc(CN2CCN(S(N)(=O)=O)CC2)n[nH]1 | 9
2 | Oc1ccc(-c2nnc(-c3ccc(O)cc3)nn2)cc1 | 22
3 | O=C1CCN(C(=O)C2(c3cccc(Cl)c3)CCCC2)CCN1 | -8
4 | COc1ccc(-c2cn(-c3ccc(OC)cc3)c(N)c2C#N)cc1 | -6
5 | Cc1oc(-c2ccc(C(=O)N3CCN(c4ccccc4)CC3)cc2)nc1CN1CCC(C)CC1 | 36
6 | c1ccc2c(CCNC3(c4nnnn4CCCN4CCOCC4)CCCC3)c[nH]c2c1 | 6
7 | O=C1CC(C(=O)NC[C@H]2C[C@@H]2C2CCC2)CN1 (stereo partly drawn) | 0
8 | CCc1cc(C(=O)N[C@@H](C)c2ccccc2)c2c(C3CC3)nn(Cc3ccccc3)c2n1 | -7
9 | Cc1ccc(S(=O)(=O)Cc2nc(-c3ccc(C(=O)NCc4ccc(C)o4)cc3)oc2C)cc1 | -13
10 | Cc1cccnc1C(F)(F)C(=O)Nc1cc(C)c(O)c(C)c1 | 11
11 | Cc1ccc(OCCNc2cc([C@H]3C[C@H](N)C3)nc(C3CC3)n2)cc1C | 25
12 | Cc1nc2sc(C(=O)Nc3ccc4ccccc4c3)c(N)c2c(C)c1C | 9
13 | CNC(=O)NCc1ccccc1S(C)(=O)=O | 8
14 | CC[C@@H](CO)NCc1cccc(OC)c1OCC(=O)NC(C)(C)C | -12
15 | OCCNCc1c(Cl)cccc1Cl | 4
16 | Cc1ccc(CCC(=O)N2CC[C@H](C)S(=O)(=O)CC2)s1 | 9
17 | O=C(Nc1ccccc1)OCc1ccc(-c2ccc(Cl)cc2)o1 | 11
18 | COc1cc(C(=O)Nc2[nH]c(=O)ncc2F)ccc1Cl | 68
19 | Cc1nn(C)c(C)c1OCc1nnc(C2CCC2)n1C | -13
20 | Cc1ccc(NC(=O)COC(=O)c2nccc3ccccc23)cc1 | 11
21 | N#Cc1c(-c2ccco2)ccn(Cc2ccc(F)cc2)c1=O | 8
22 | C[C@H]1CN(c2ccc(N(C)C)cc2)C(=O)NC1=O | 6
23 | C[C@H](NC(=O)C1CC1c1ccccc1)[C@H](O)c1ccc2c(c1)OCO2 (stereo partly drawn) | 11
24 | Cn1c(=O)c2c(nc3nc(N4CCOCC4)n(CC(=O)c4ccc(Cl)cc4)n32)n(C)c1=O | 0
25 | CC(N)C(=O)NC(C)C(=O)NCCc1ccccc1 (stereo not drawn) (H-Ala-Ala-NHPhenethyl; configuration not given here) | -3
26 | N#Cc1cc(Br)cc(Cl)c1O | 7

Row | Structure (SMILES) | % Inhibition [%]
27 | COc1ccc(CNC(=O)c2ccc(N3C(=O)[C@@H]4Cc5c([nH]c6ccccc56)C(c5cccc(OC)c5)N4C3=O)cc2)cc1 (stereo partly drawn) | 32
28 | Cc1oc(-c2ccn[nH]2)cc1S(=O)(=O)Nc1ccc(F)c(Cl)c1 | 0
29 | Cc1cccc(CN(Cc2ccccn2)C(=O)Cn2c(C)cc(O)cc2=O)c1 | 11
30 | Cc1ccc(S(=O)(=O)N2C[C@@H]3CCCN3c3ccc(C(F)(F)F)cc32)cc1 | -18
31 | N#Cc1nc(NC(=O)c2cc3c(s2)CCOC3)[nH]c1C#N | 6
32 | O=C(c1ccccc1)c1ccc2n1CC[C@H]2C(=O)Nc1ccccc1C(F)(F)F | 8
33 | COc1cc(N)ccc1OCC(F)F | 11
34 | COc1ccc(Nc2nnc(-c3ccc(NC(=O)C(=O)NCCCn4ccnc4)cc3)s2)cc1 | 76
35 | CC[C@@H](c1ccncc1)N(C)Cc1cc(-c2ccc(Cl)cc2)no1 | -1
36 | Cc1nc([C@H](C)NC(=O)c2ccc(S(C)(=O)=O)cc2)cs1 | 8
37 | Nc1nccnc1C(=O)N(Cc1ccccc1)C[C@]1(O)CCc2ccccc21 | -3
38 | NC(=O)c1ccc(NC(=O)N2CCc3c(F)ccc(F)c3C2)c(F)c1 | -23
39 | Cc1c(N2CCC(C(=O)NC[C@H]3CCCO3)CC2)c(=O)n(CC(C)C)c(=O)n1-c1ccccc1 | 4
40 | Cc1csc([C@@H](C#N)C(=O)c2ccncc2)n1 | -6
41 | CCOc1ccc(Cn2cncn2)nc1 | -9
42 | O=S(=O)(C1CC1)N1CC[C@H](CO)C1 | 0
43 | CCCn1cc(CNc2nnc(C(C)(C)C)o2)cn1 | -2
44 | Cc1ccccc1N1CCN(C(=O)c2ccc3ncccc3c2)CC1 | 9
45 | CNc1nc(C)cc(C(=O)Nc2ccnn2C[C@H]2CCOC2)n1 | 0
46 | Cc1ccc(Nc2ccc(N3CCNCC3)nn2)nc1 | 58
47 | Cc1cc(=O)n(Cc2ccccc2)c2c(C)cccc12 | 12
48 | O=C(Nc1cnc2ccccc2c1)c1ccccc1C(=O)c1ccc(F)cc1 | 94
49 | C=C1C(C)C2C(Cc3c[nH]c4ccccc34)NC(=O)C23C(=O)CC(O)C(O)CC(C)C/C=C/C3C1O (stereo not drawn) | 65
50 | COc1cccc(CNC(=O)[C@H]2CCCN(c3nc4cccnc4n(C)c3=O)C2)c1OC | 1
51 | Cc1ccccc1N1C(O)=Nc2ccccc2S1(=O)=O | -19
52 | Cc1cc(NC(=O)C(C)N2CCOC(c3nc(C(C)C)n[nH]3)C2)on1 (stereo not drawn) | 0

Row | Structure (SMILES) | % Inhibition [%]
53 | O=C(CN1CCC[C@H](O)C1)NCC1(N2CCOCC2)CCCCC1 | -8
54 | CC1(C)N=C(c2ccc(C(C)(C)C)cc2)C(=O)N1 | 13
55 | COCc1nncn1C1CN(C(=O)CCc2ccccc2OC)C1 | -10
56 | Cc1cc(C(=O)Nc2ccc(Br)c(C)n2)no1 | -20
57 | O=C(Cc1c[nH]c2ccccc12)N1CCc2ccccc2C1 | -17
58 | O=S(=O)(Cc1ccccc1)Nc1nnc[nH]1 | 4
59 | Cc1c(-c2nn(-c3ccccc3)c(-c3cnn(C)c3C)c2Cl)cnn1C | -6
60 | Cc1[nH]ncc1CCCNCc1cccc(O)c1 | 4
61 | Cc1cc(C)n2c(-c3ccccc3C)nnc2n1 | -1
62 | CC(C)CCn1c(=O)c2sccc2n(CC(=O)N(C)c2ccccc2)c1=O | 11
63 | CCCc1cnc(NC(=O)c2cnn(C)c2C)s1 | 7
64 | O=C1NC(=O)[C@]2(CCOc3ccc(F)cc32)N1 | 4
65 | COCCOC(=O)c1cc(C(F)(F)F)cc(C(=O)OCCOC)n1 | 11
66 | O=C(c1cnc(Nc2nc3ccccc3o2)nc1)N1CCN(c2ccccc2)CC1 | 10
67 | CC(C)=CCN1CC[C@]2(CCCO2)CCC1=O | 10
68 | O=C(NCC(=O)N(C[C@H]1CCCO1)C1(C(=O)NC2CCCCC2)CCCCC1)c1ccccc1 | -8
69 | O=C(Nc1nc(-c2cccc3ccccc23)cs1)c1c(Cl)cccc1Cl | -25
70 | COc1ccc(-c2cnn3c(-c4ccccn4)ccnc23)cc1OC | 4
71 | CC(C)[C@@H]1CC[C@H](C)C[C@H]1OC(=O)Cn1cc(-c2ccc(Cl)cc2)[n+]2c1CCC2 | 75
72 | CC1CCC(C)(NC(=O)Nc2ccn(C(C)C)n2)CC1 (stereo not drawn) | -15
73 | COC(=O)C(C)CN1CCCC(n2ccc(C(F)(F)F)n2)C1 (stereo not drawn) | 8
74 | O=C1CCCC1C1COCCN1Cc1ncsc1Br (stereo not drawn) | 7
75 | O=C(NCc1cc(F)cc(F)c1)c1csc(C(=O)NC2CC2)n1 | -3
76 | O=C(COc1ccc(Cl)cc1Cl)Nc1onc2c1CCC2 | 16
77 | CCCn1c(C)ccc(-c2noc(CCC(=O)NC3CCCC3)n2)c1=O | -5
78 | O=C(Cc1cccs1)NC1CCN(c2nnc3ccc(Cl)cn23)CC1 | -10

Row | Structure (SMILES) | % Inhibition [%]
79 | COc1ccc(Cn2nc(C)n(-c3cccc(F)c3)c2=O)cc1 | 12
80 | O=C(COc1nnc2ccccn12)NC1CCCCCC1 | 8
81 | Cc1ccccc1[C@H]1CCN(c2ccc(NC(=O)c3ccc(Cl)cc3)c(C(=O)O)c2)C1 | -17
82 | COc1ccsc1S(=O)(=O)N1CCC(n2ccnc2)CC1 | -14
83 | COc1ccc(N2CCN(C(=O)c3ccccc3Cl)[C@@H](C)C2=O)cc1OC | -8
84 | COC(=O)c1ccc(C)c(NC(=O)c2ocnc2C2CC2)c1 | 14
85 | COC(=O)[C@](Nc1ccc(Oc2ccccc2)cc1)(c1cc(C)c(O)c(C)c1)C(F)(F)F | 7
86 | Cc1nccc(N(C)C2CC(Oc3ccccc3)C2(C)C)n1 (stereo not drawn) | -12
87 | Cc1ccccc1[C@H]1CCN(c2ccc(NC(=O)c3ccc(F)cc3)c(C(=O)O)c2)C1 | -12
88 | CN(C)c1ccc2c(c1)CN(C(=O)c1ccccc1S(C)(=O)=O)CC2 | -5
89 | CCOc1cc(C(=O)Nc2ccc3nc4c(c(Nc5ccc(OC)c(OC)c5)c3c2)CCCC4)cc(OCC)c1OCC | 103
90 | Cc1noc(Cl)c1CC(=O)N1CCCC(C)(C)CC1 | 20
91 | O=S(=O)(c1ccc2c(c1)OCCO2)N1CCO[C@H](c2ccc(F)cc2)C1 | 11
92 | Cc1cccc(OCc2nn3c([C@H]4CCCN(S(C)(=O)=O)C4)nnc3s2)c1 | 6
93 | CC1(C)C(=O)NCCN1C(=O)c1cccc2ccccc12 | 14
94 | Cc1cc(C(=O)N2CCN(C(=O)C(C)C)[C@@H]3CS(=O)(=O)C[C@@H]32)nc(C)n1 | -7
95 | COc1ccc(C(=O)N2c3ncnn3C(c3ccccc3)CC2c2ccc(C)cc2)cc1OC (stereo not drawn) | 98
96 | O=C(COc1ccccc1O)NC1CC1c1cccc(Cl)c1 (stereo not drawn) | 15
97 | COc1cc(C)c2[nH]c3c(c(=O)c2c1)CN(CC(=O)Nc1ccc2c(c1)OCO2)CC3 | 6
98 | Cc1ccc(CN2C(=O)[C@@H]3CCCN3c3ccc(C(F)(F)F)cc32)cc1 | -7
99 | Cc1cccc(-c2nc3nc(C)c(CC(=O)N4CCCCC4)c(C)n3n2)c1 | 7
100 | CC(C)c1cc(=O)n(Cc2ccccc2Cn2cnc(C(C)C)cc2=O)cn1 | -1
101 | O=C(CCc1ncc(-c2ccc(Cl)cc2Cl)o1)NC1(C(=O)O)CCCCC1 | -4
102 | OCC#Cc1ncc(C(F)(F)F)cc1Cl | -19
103 | COc1ccc(-c2nccn3cc(C(=O)NCC(C)C)nc23)cc1 | 5
